The text below walks through data of paper PMC10668032.

The list shows a part of the results. At the low end of the ranking the order means little.

This test deals with SIX1-Q177R homeodomain (UniProt Q15475). Description: universal protein binding microarray. The conditions noted are these: Universal all-10-mer PBM (8x60K, AMADID 030236), 300 nM GST-tagged protein, Alexa Fluor 488 anti-GST; buffer, salt, pH and temperature not stated; high values mean tight binding; most listed sequences are background and not binding sites; double strand, one strand shown.
Consider AGCCTACC, for which the binding signal was -0.0493 E-score. For ACTTCAAC, the binding signal was found to be 0.0755 E-score. The value for GATCTGGA was -0.0728 E-score. In the case of ACCAATGG, the binding signal is 0.012 E-score.

Turning to CAACTCCA, the binding signal is 0.000825 E-score. For AAGATGAG, the binding signal is -0.133 E-score. Take AAACTGTG: the binding signal is -0.0881 E-score. For GCTATCCA, the binding signal was -0.188 E-score.

As for ACTATTAC, the binding signal was -0.0342 E-score.

In the case of AGCGCGGG, the binding signal was determined as 0.263 E-score. With CCCTGCAC, the binding signal was determined as 0.178 E-score. The value for AGCACTGG was 0.17 E-score; that for ATCCCTCA was 0.0788 E-score. Take ATCTTAAC: the binding signal is 0.136 E-score.

Consider CACCGTCA, for which the binding signal came out at 0.209 E-score. To GCCGGTGA belongs -0.0418 E-score; to CCGCCCCG, 0.101 E-score; to GGAACATA, -0.106 E-score. Turning to AGGCGACA, the binding signal came out at 0.25 E-score. The value for CCGGATCG was 0.199 E-score; that for GCTAGAAC was -0.16 E-score. With GTAATATA, the binding signal came out at 0.0199 E-score. For the sequence AAATTCAC, the binding signal was -0.0445 E-score.

Regarding CGGCCATC, the binding signal is -0.115 E-score. Regarding CATGGAAA, the binding signal was -0.0353 E-score. The value for ATGGTTGA was -0.075 E-score. To CGGTTAGA belongs -0.0519 E-score.

Consider GGATGAAC, for which the binding signal is -0.0336 E-score. The value for CCCAACGA was 0.0283 E-score; that for CCCGAGCC was -0.023 E-score; that for ACTAGATA was 0.0168 E-score. To AGTATGGA belongs -0.121 E-score. For the sequence CACGCCGC, the binding signal was found to be 0.13 E-score.

On to AGGTAACG, for which the binding signal turned out to be 0.099 E-score.

As to GGGAAACC, the binding signal was -0.0305 E-score. The value for CTAAATGA was -0.0401 E-score; that for AGTAAGCA was -0.16 E-score; that for CCACGACG was -0.0808 E-score. To AGACATTG belongs -0.21 E-score; to ATGGTCAC, -0.195 E-score. The value for ATGCTTTA was 0.0368 E-score; that for CGTGATCA was -0.0942 E-score; that for GACCAAGC was -0.114 E-score. With GTAAACGA, the binding signal came to 0.014 E-score. The value for AATCCACC was 0.0411 E-score; that for ATTATTCC was 0.000165 E-score.

As to AAGATCCA, the binding signal is -0.123 E-score. The value for AGACCATA was -0.213 E-score. The value for ATCGCGTG was 0.183 E-score; that for GAATACGC was 0.0445 E-score; that for CGGTCTAG was -0.0991 E-score. To CATTATCG belongs -0.0607 E-score. On to CCTTAAGA, for which the binding signal was -0.134 E-score. The value for ACGCTACA was 0.161 E-score.

For the sequence CTAGAGGA, the binding signal is -0.118 E-score. To AAGTTCAG belongs -0.114 E-score. To AGCTTGCG belongs -0.205 E-score; to TAATTAAA, -0.0974 E-score; to GAACTAAC, -0.178 E-score. To CACAGGAG belongs 0.168 E-score. Regarding GCAGGCTA, the binding signal was -0.0279 E-score.

As to CTACGTCC, the binding signal was -0.00151 E-score. Regarding CCCATGGG, the binding signal turned out to be 0.149 E-score. The value for CGTACTAA was 0.0529 E-score; that for TGAGGACA was 0.0712 E-score; that for AGCTTCAC was -0.2 E-score. The value for CATAAGTC was -0.391 E-score.

For CGGTACAG, the binding signal turned out to be 0.1 E-score. To CATCGCAC belongs -0.0711 E-score; to GTCGCAAA, 0.0292 E-score; to GACGCAAC, -0.0242 E-score. The value for GAATTTCC was -0.292 E-score.

Turning to ACGTCCCC, the binding signal is 0.0834 E-score. For CGCCAATC, the binding signal is -0.134 E-score. To ACTTTTAG belongs -0.0932 E-score; to GACAGGCC, -0.113 E-score. In the case of AATGACAC, the binding signal was determined as 0.464 E-score.

As to GCCCCGAA, the binding signal is -0.0782 E-score. The value for ACGAGTAC was 0.105 E-score; that for GGAACAAA was -0.121 E-score. To AGCACGTC belongs -0.0483 E-score.

For CACTCAGA, the binding signal amounted to 0.135 E-score. To AGCTTCCA belongs -0.333 E-score; to ACGTAGTA, -0.00472 E-score; to TACGCGCA, 0.102 E-score. To GAACATAC belongs -0.0661 E-score; to AGGATCCT, 0.171 E-score. For the sequence CATTTTAC, the binding signal came out at 0.0106 E-score.

For the sequence GACCGGAA, the binding signal is -0.0546 E-score. As for CCCATAAG, the binding signal was 0.0661 E-score. The value for CTGCCAAC was -0.00445 E-score; that for CCACCGGA was 0.203 E-score.

With ACACGACA, the binding signal stood at 0.404 E-score. To GGTTCTTA belongs -0.0396 E-score; to GATCCTGC, 0.0647 E-score; to ATGAGTTG, -0.187 E-score.

For TCTACAAA, the binding signal is -0.168 E-score. To ACGCTGAC belongs -0.0388 E-score; to ACCTCGCC, 0.131 E-score.

Take TGATTACA: the binding signal was -0.0749 E-score. As to CTATGCCC, the binding signal was -0.0692 E-score.

As to GCTCGGCC, the binding signal is -0.217 E-score. To AATGCCCT belongs -0.232 E-score; to TATTTCGA, -0.0987 E-score; to GAGCTCAC, -0.155 E-score. Take CGAGCAGA: the binding signal was -0.159 E-score. As to CGCGCGCA, the binding signal is -0.00187 E-score. Turning to GGCTCCAC, the binding signal was found to be 0.0334 E-score. The value for CCAGATAG was -0.13 E-score. The value for ACGCACTG was 0.0161 E-score.

On to AATTTGCA, for which the binding signal was -0.0182 E-score.

As to AGGGCCGA, the binding signal is -0.168 E-score.

For AAACAACA, the binding signal came to 0.166 E-score. Take GGCTAGCC: the binding signal was found to be 0.079 E-score. With CCGATGAA, the binding signal was -0.0526 E-score. To CGCAAAAA belongs -0.0293 E-score; to CGTAGCTC, -0.0122 E-score; to AGCTAGCT, -0.106 E-score. Consider AGTCTATC, for which the binding signal was -0.0489 E-score.

Regarding TAGGCAAA, the binding signal was -0.253 E-score.

CAGCTTTA: the binding signal was -0.212 E-score. The value for CACAGAGG was -0.014 E-score.

As to GGCAATTA, the binding signal was -0.106 E-score.

ATTAAGCA: the binding signal is -0.167 E-score. Take CATTGACA: the binding signal came out at 0.045 E-score.

With AAATTGGT, the binding signal is -0.052 E-score.

Regarding GCTCACCC, the binding signal is -0.0316 E-score. With AACTGTCG, the binding signal was -0.038 E-score.

With CGCCTTTA, the binding signal is -0.0635 E-score.

As to TGTTCCAA, the binding signal is -0.0255 E-score. The value for CGTAAAGA was -0.116 E-score; that for CATGAAGA was -0.0214 E-score; that for CTACGGCA was -0.182 E-score. The value for GACCGCTA was -0.159 E-score.

ACGTTCAG: the binding signal is -0.0188 E-score. Take AAGCCCCA: the binding signal is -0.0567 E-score. To TACGAGCA belongs 0.141 E-score; to ACGTGCTG, -0.0225 E-score; to AAAGACTT, -0.343 E-score. To GGCATGCA belongs -0.102 E-score; to CGTAATCC, 0.123 E-score; to CCCGGTAA, 0.0711 E-score. The value for ATTGCAAT was -0.337 E-score; that for ACTGGGAG was 0.223 E-score.

On to AAAAGGTA, for which the binding signal is -0.0105 E-score. Consider ATTATCCG, for which the binding signal is 0.122 E-score.

In the case of AAAAAGAA, the binding signal was -0.0124 E-score.

Consider GTGCGCTA, for which the binding signal was found to be 0.0648 E-score.

As for ACTAACTC, the binding signal is -0.039 E-score. The value for ATTAGAAA was -0.00517 E-score; that for GACAGGAC was -0.24 E-score; that for CCTGGGCC was -0.00605 E-score. The value for GATCAGAC was -0.183 E-score. Take CAAAAACC: the binding signal was -0.00872 E-score. On to CGCGAAAG, for which the binding signal is -0.059 E-score. On to CAGATGGA, for which the binding signal was -0.0102 E-score.

As to CGGGTTAA, the binding signal came out at 0.145 E-score.

For GCAAATAA, the binding signal is -0.183 E-score. Regarding ATACCCCG, the binding signal was determined as 0.304 E-score. The value for GGGCCCCA was -0.2 E-score; that for CGGCTTGC was -0.0796 E-score; that for AGGTGGCG was 0.0222 E-score.

With AGGGCTCG, the binding signal is -0.0814 E-score. To CCAGGCCG belongs 0.0107 E-score. To CTACACGA belongs 0.388 E-score; to ATAGAATA, -0.0994 E-score. The value for ATCCCTGA was 0.0972 E-score; that for CAATGACC was 0.104 E-score. As for ATAAACCC, the binding signal was 0.16 E-score. To AGATTTCC belongs -0.23 E-score.

For the sequence AAGCGCAT, the binding signal is -0.0898 E-score. To ATCGGGTA belongs 0.146 E-score.
